{"source": "PubChem BioAssay AID1030", "about": "(National Center for Advancing Translational Sciences (NCATS), 2008)", "note": "Several values for one entry are separate records, joined by “and”; a condition that tells them apart may be missing. Equal values may be shown once. About 16,000 (7.3%) of roughly 220,000 compounds were called active. This list was built around the results that the source calls inconclusive (neither active nor inactive); the mix of calls is not that of the screen. The call rests on the fitted dose curve; in most records, active means well fitted inhibition curve with a large enough effect (not every such curve was filed as active); inconclusive means small, poorly fitted or top-dose-only effect, or another doubt; inactive means no such curve, though single readings can be large or run the other way. A potency beside an inconclusive call is a rough fit, not a confirmed value. Potency means the concentration at half of the fitted maximal effect; tags describe the fitted curve by direction and shape.", "data": [{"molecular_target": "Aldehyde dehydrogenase 1A1 (Homo sapiens) (UniProt P00352)", "sequence (P00352 whole entry, looked up)": "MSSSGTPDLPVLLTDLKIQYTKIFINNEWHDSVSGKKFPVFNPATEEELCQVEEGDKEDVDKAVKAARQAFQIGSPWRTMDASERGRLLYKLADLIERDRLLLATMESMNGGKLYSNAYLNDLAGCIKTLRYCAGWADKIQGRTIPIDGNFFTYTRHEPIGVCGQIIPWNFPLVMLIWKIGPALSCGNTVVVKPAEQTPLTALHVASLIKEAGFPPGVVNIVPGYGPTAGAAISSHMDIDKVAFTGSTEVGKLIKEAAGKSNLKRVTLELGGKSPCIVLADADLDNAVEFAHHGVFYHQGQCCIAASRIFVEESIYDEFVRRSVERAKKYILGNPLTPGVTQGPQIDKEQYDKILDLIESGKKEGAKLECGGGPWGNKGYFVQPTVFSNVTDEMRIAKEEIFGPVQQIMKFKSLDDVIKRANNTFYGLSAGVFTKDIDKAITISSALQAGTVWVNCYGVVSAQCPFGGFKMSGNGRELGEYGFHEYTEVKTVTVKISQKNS", "assay": "qHTS Assay for Inhibitors of Aldehyde Dehydrogenase 1 (ALDH1A1);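 on activity, negative = inhibition: plate controls were no enzyme wells and a reference inhibitor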", "settings": "Purified ALDH1A1, NADH fluorescence, propionaldehyde substrate; series mostly up to 75.3 µM; activity, negative = inhibition: at the top concentration", "values": [{"smiles": "c1ccc(-c2cc(-c3nnc4sc(-c5ccccn5)nn34)[nH]n2)cc1", "Potency": "inconclusive: 39.8 µM [inhibitor, single point]"}, {"smiles": "Cc1ccccc1C(=O)c1c[nH]c(C(=O)NCCCn2ccnc2)c1", "Potency": "inconclusive: 20 µM [inhibitor, partial curve]"}, {"smiles": "S=C(NCCc1ccccc1)Nc1ccc(Nc2ccccc2)cc1", "Potency": "inconclusive: 39.8 µM [inhibitor, single point]"}, {"smiles": "CCC(C)NC(=O)c1ccccc1-c1nc2ccccc2[nH]1", "note": "(configuration not stated)", "activity, negative = inhibition": "inactive: 4.88%"}, {"smiles": "Cc1onc(-c2ccccc2)c1C(=O)Nc1ccc(S(=O)(=O)N2CCCCC2)cc1", "activity, negative = inhibition": "inactive: -6%"}, {"smiles": "Cc1ccc(Cn2c(SCC(C)C)nc3c2c(=O)[nH]c(=O)n3C)cc1", "Potency": "active: 28.2 µM"}, {"smiles": "Cc1nn(C)c(C)c1/C=C1/SC(=S)NC1=O", "Potency": "inconclusive: 39.8 µM [inhibitor, single point]"}, {"smiles": "CN(C)S(=O)(=O)c1cccc(C(=O)NC(=S)N(CCC#N)Cc2cccnc2)c1", "Potency": "inconclusive: 28.2 µM [inhibitor, single point]"}, {"smiles": "Cc1ccc(S(=O)(=O)Cc2ccc(C(=O)NCCCN3CCN(C)CC3)o2)cc1", "Potency": "inconclusive: 39.8 µM [inhibitor, single point]"}, {"smiles": "CCN(CC)CCNC(=O)c1ccc(NC(=O)c2cccc(S(=O)(=O)Nc3ccc(C)cc3)c2)cc1", "activity, negative = inhibition": "inactive: -3.01%"}, {"smiles": "c1ccc(-c2cnc(CSc3nnc4ccccn34)o2)cc1", "Potency": "inconclusive: 39.8 µM [inhibitor, single point]"}, {"smiles": "O=C1NC(c2ccccc2)=C(c2nc3ccccc3s2)C(c2ccc(F)cc2)N1", "note": "(configuration not stated)", "activity, negative = inhibition": "inactive: -3.92%"}, {"smiles": "COc1ccc(C(=S)N2CCOCC2)cc1OS(=O)(=O)c1ccccc1[N+](=O)[O-]", "Potency": "active: 11.2 µM"}, {"smiles": "NNC(=O)c1sccc1OCc1ccc(F)cc1", "Potency": "active: 10 µM"}, {"smiles": "CCOc1ccc2[nH]c(=O)c(CN(Cc3ccccc3)C(=O)N3CCCC3)cc2c1", "Potency": "inconclusive: 25.1 µM [inhibitor, partial curve]"}, {"smiles": "COc1ccc(-c2nc(SCc3ccccc3)n(C(=O)c3ccco3)n2)cc1", "Potency": "inconclusive: 37.7 µM [inhibitor, single point]"}, {"smiles": "c1ccc(-n2nnnc2CN2CCOCC2)cc1", "Potency": "inconclusive: 23.8 µM [inhibitor, single point]"}, {"smiles": "O=c1cc(-c2ccc(O)c(O)c2)oc2ccccc12", "Potency": "active: 25.1 µM"}, {"smiles": "CN(C)c1cc[n+](CC(=O)c2ccc(-c3ccccc3)cc2)cc1", "Potency": "inconclusive: 28.2 µM [inhibitor, partial curve]"}, {"smiles": "Nc1ncc(-c2cc3ccccc3oc2=O)s1", "Potency": "active: 11.2 µM"}, {"smiles": "O=C(O)c1cc(N(Cc2ccccc2O)Cc2cc(O)ccc2O)ccc1O", "Potency": "inconclusive: 22.4 µM [inhibitor, partial curve] and inconclusive: 25.1 µM [inhibitor, partial curve]"}, {"smiles": "Cn1ccc(C(=O)NC(=S)N2CCSCC2)n1", "Potency": "inconclusive: 37.7 µM [inhibitor, single point]"}, {"smiles": "NS(=O)(=O)c1ccc(NC(=O)C(Sc2ccccc2)c2ccccc2)cc1", "note": "(configuration not stated)", "activity, negative = inhibition": "inactive: 11.5%"}, {"smiles": "Cc1ccc2oc(C(=O)Nc3nnc(C)s3)c(C)c2c1", "activity, negative = inhibition": "inactive: 4.2%"}, {"smiles": "CC(=O)Nc1ccc(S(=O)(=O)N2CCSC2C(=O)O)cc1", "note": "(configuration not stated)", "Potency": "active: 17.8 µM"}, {"smiles": "Nc1nc2nc(-c3ccc(OCc4ccccc4)cc3)cc(C(F)(F)F)n2n1", "Potency": "inconclusive: 31.6 µM [inhibitor, partial curve]"}, {"smiles": "COc1ccc(/C=C/C(=O)NNc2c(F)c(F)cc(F)c2F)cc1OC", "Potency": "inconclusive: 39.8 µM [inhibitor, single point]"}, {"smiles": "CS/C(=C\\[N+](=O)[O-])Nc1ccc(OC(F)(F)F)cc1", "Potency": "inconclusive: 39.8 µM [inhibitor, single point]"}, {"smiles": "O=C(c1ccc(-c2nc3ccccc3s2)s1)N1CCOCC1", "Potency": "inconclusive: 39.8 µM [inhibitor, single point]"}, {"smiles": "O=C(CSc1ccc(-c2cccc([N+](=O)[O-])c2)nn1)N1CCCCCC1", "Potency": "inconclusive: 25.1 µM [inhibitor, single point]"}, {"smiles": "CCOc1ccc(NCC(=O)Nc2ccc(Cl)cc2C)cc1", "Potency": "active: 3.55 µM"}, {"smiles": "Cc1cccc(NC(=S)N(CCN(C)C)Cc2cc3cc(C)cc(C)c3[nH]c2=O)c1", "activity, negative = inhibition": "inactive: 3.21%"}, {"smiles": "Cc1ccc(C2C(C(=O)c3sc(C)nc3C)=C(O)C(=O)N2CCN2CCOCC2)o1", "note": "(configuration not stated)", "Potency": "inconclusive: 39.8 µM [inhibitor, single point]"}, {"smiles": "CC1CCN(S(=O)(=O)c2cn(CC(=O)N3CCN(C)CC3)c(=O)c3ccccc23)CC1", "Potency": "inconclusive: 25.1 µM [inhibitor, single point]"}, {"smiles": "COCC(=O)OCC(=O)Nc1ccccc1-c1ccccc1", "activity, negative = inhibition": "inactive: 0.304%"}, {"smiles": "O=C(Nc1nc(-c2ccccn2)cs1)c1ccccc1-n1cnnn1", "Potency": "active: 10 µM"}, {"smiles": "Cc1ccc(S(=O)(=O)NCC(=O)N/N=C/c2ccc(Cl)cc2Cl)cc1", "Potency": "active: 7.08 µM"}, {"smiles": "COc1ccc(C(C)=O)cc1CN1C(=O)NC2(CCCCCCC2)C1=O", "Potency": "active: 6.31 µM"}, {"smiles": "COc1ccc(-n2c(SCC(=O)N3CCCC(C)C3)nnc2-c2cccnc2)cc1", "note": "(configuration not stated)", "Potency": "inconclusive: 39.8 µM [inhibitor, single point]"}, {"smiles": "COc1ccc(NS(=O)(=O)c2ccc(NC(=O)c3ccc(N(C)S(C)(=O)=O)cc3)cc2)c(OC)c1", "activity, negative = inhibition": "inactive: -2.35%"}, {"smiles": "O=C(CCn1c(=O)oc2ccccc21)N(Cc1ccccc1)c1ccccc1", "Potency": "inconclusive: 39.8 µM [inhibitor, single point]"}, {"smiles": "CCOC(=O)c1ccc2nc(Nc3nc4ccc(F)cc4s3)sc2c1", "Potency": "inconclusive: 14.1 µM [inhibitor, partial curve]"}, {"smiles": "CCOc1cc(NC(=O)C2CCCO2)c(OCC)cc1NC(C)=O", "note": "(configuration not stated)", "Potency": "inconclusive: 39.8 µM [inhibitor, single point]"}, {"smiles": "COc1ccc2c(c1)c1ccccc1n2C", "Potency": "inconclusive: 35.5 µM [inhibitor, partial curve]"}, {"smiles": "COc1ccc(CNC(=O)Nc2ccc(C)c(C)c2)cc1", "activity, negative = inhibition": "inactive: 4.68%"}, {"smiles": "O=c1c2c(nc3cc(-c4ccc(F)cc4)[nH]n13)CCCC2", "Potency": "inconclusive: 35.5 µM [inhibitor, single point]"}, {"smiles": "O=C(CSc1ccccn1)N/N=C/c1ccccc1[N+](=O)[O-]", "Potency": "inconclusive: 15.8 µM [inhibitor, partial curve]"}, {"smiles": "Cc1oc(-c2ccccc2Cl)cc1-c1nn2c(-c3ccco3)nnc2s1", "activity, negative = inhibition": "inactive: -4.91%"}, {"smiles": "CC(C)n1cc(-c2ccc(Cl)cc2)cc(C#N)c1=O", "Potency": "inconclusive: 25.1 µM [inhibitor, single point]"}, {"smiles": "COc1cccc(/C=C2\\SC(=S)N(N3CCOCC3)C2=O)c1OC", "Potency": "active: 14.1 µM"}, {"smiles": "Cc1ccc(C(=O)N[C@H](C(=O)Nc2cc(Cl)cc(Cl)c2)C(C)C)cc1", "activity, negative = inhibition": "inactive: 4.84%"}, {"smiles": "CN(C)CCN(c1ccccn1)c1ccccn1", "activity, negative = inhibition": "inactive: 7.72% [at 13.5 µM]"}, {"smiles": "COc1ccc(NCc2ccc(OC)c(OC)c2)cc1", "Potency": "active: 28.2 µM"}, {"smiles": "Cc1ccccc1C(=O)NNC(=O)c1cc(N)cc([N+](=O)[O-])c1", "Potency": "inconclusive: 39.8 µM [inhibitor, single point]"}, {"smiles": "Clc1cccc(Cl)c1-c1noc(-c2ccno2)n1", "activity, negative = inhibition": "inactive: 13.7%"}, {"smiles": "C=CCOc1ccc(C2/C(=C(\\O)c3c(C)[nH]c(C(=O)OC)c3C)C(=O)C(=O)N2CCN(C)C)cc1", "note": "(configuration not stated)", "Potency": "inconclusive: 44.7 µM [inhibitor, single point]"}, {"smiles": "CCOC(=O)c1cc(-c2ccc(OC)cc2F)nc2c1c(C)nn2CCC#N", "Potency": "inconclusive: 25.1 µM [inhibitor, partial curve]"}, {"smiles": "Cc1ccc(S(=O)(=O)Nc2ccc(Br)cc2/C=N/n2cnnc2)cc1", "Potency": "active: 28.2 µM"}, {"smiles": "CC1=NOC(=O)/C1=C\\c1ccc(-c2cccc(Cl)c2)o1", "Potency": "inconclusive: 3.55 µM [inhibitor, full curve]"}, {"smiles": "CCO[C@@H]1OC(C(=O)O)=C[C@H](c2ccc(Br)cc2)[C@H]1CCCO", "Potency": "inconclusive: 39.8 µM [inhibitor, single point]"}, {"smiles": "O=C(Nc1cc(S(=O)(=O)Nc2ccc(Cl)cc2)ccc1N1CCCCC1)c1ccc(F)cc1", "Potency": "active: 28.2 µM"}, {"smiles": "COc1ccc(C2Nc3ccccc3C(=O)N2Cc2ccccc2)cc1CSc1ccccn1", "note": "(configuration not stated)", "Potency": "inconclusive: 39.8 µM [inhibitor, single point]"}, {"smiles": "Cc1cc(NC(=O)Nc2ccc(F)cc2)no1", "Potency": "inconclusive: 39.8 µM [inhibitor, partial curve, poor fit]"}, {"smiles": "CCOC(=O)N1CCN(C(=O)C2CCN(Cc3cccc(OCc4ccccc4)c3)CC2)CC1", "Potency": "active: 14.1 µM"}, {"smiles": "Cc1nc2c(-c3ccccc3)c(C)nn2c(N)c1-c1ccccc1", "Potency": "inconclusive: 39.8 µM [inhibitor, single point]"}, {"smiles": "CC(=O)Nc1ccc(S(=O)(=O)N2CCC(NC(=O)C(Cc3cccn3C)NC(C)=O)CC2)cc1", "note": "(configuration not stated)", "Potency": "inconclusive: 25.1 µM [inhibitor, single point]"}, {"smiles": "CC(NC(=S)Nc1ccccc1Cl)C(c1cccs1)N1CCCC1", "note": "(configuration not stated)", "Potency": "inconclusive: 39.8 µM [inhibitor, single point]"}, {"smiles": "O=C(N/N=C/c1ccc([N+](=O)[O-])cc1)c1ccc(COc2ccccc2-c2ccccc2)cc1", "activity, negative = inhibition": "inactive: 3.06%"}, {"smiles": "Cc1ccn2cc(C(=O)NCc3ccco3)nc2c1", "Potency": "inconclusive: 28.2 µM [inhibitor, single point]"}, {"smiles": "O=c1[nH]c(-c2ccccn2)cc2ccccc12", "Potency": "inconclusive: 28.2 µM [inhibitor, partial curve]"}, {"smiles": "O=S1(=O)N=C(Nc2ccc(O)cc2)c2ccccc21", "activity, negative = inhibition": "inactive: 21.1%"}, {"smiles": "O=C(NCC(=O)N(CCN1CCOCC1)C(C(=O)NC1CCCC1)c1cccs1)c1ccco1", "note": "(configuration not stated)", "Potency": "inconclusive: 37.7 µM [inhibitor, single point]"}]}]}
